Data: the supplement of paper PMC4723716
± gives the uncertainty stated by the source. Over roughly 9,900 compounds, “viability index relative to DMSO control” has its median near 1; the lowest 2% begin near 0.85. This is one part of the list.

System: Plasmodium falciparum NF54 stage V gametocytes
Assay: viability index relative to DMSO control (fraction); higher = less gametocyte killing
Conditions: 2.5 µM, incubation time: 72 h
In short: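 Compound at 2.5 µM was incubated for 72 hr at 37°C under low oxygen with P. falciparum NF54 stage V gametocytes (0.75% gametocytemia, 1.25% hematocrit, 10 µl, serum-free screening medium) in 1,536-well plates. Staining used 3 µl of 2.5 µM MitoTracker Red CMXRos plus 0.13% saponin for one to two hours, and red particles of 20–70 µm2 were counted in one imaged field per well. Each viability index is that count relative to the plate mean of solvent-only wells.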

[1] = library set: Broad Institute DOS

Row | Structure (SMILES) | viability index [1] | viability index (library set: Broad Institute Blood Stage)
1 | Cc1ccccc1S(=O)(=O)N1[C@@H]2CNC[C@H]1[C@@H]2c1ccc(-c2ccc(C#N)cc2)cc1 | 0.946 ± 0.024 | –
2 | Cc1ccc(S(=O)(=O)Nc2ccc3c(c2)CC(=O)N([C@H](C)CO)C[C@@H](C)[C@H](CN(C)S(=O)(=O)c2ccccc2)O3)cc1 | 1.02 ± 0.022 | –
3 | Cc1ccc(S(=O)(=O)N[C@H]2C=C[C@H](CC(=O)NCc3ccc(Cl)c(Cl)c3)O[C@@H]2CO)cc1 | 0.956 ± 0.017 | –
4 | C[C@@H]1CCn2cc(nn2)COC[C@@H](c2ccccc2)NC1=O | 1.015 ± 0.005 | –
5 | CCCN(C)C[C@H]1OCCCC[C@@H](C)Oc2ccc(NC(=O)CCCN(C)C)cc2C(=O)N([C@H](C)CO)C[C@H]1C | 1.11 ± 0.14 | –
6 | O=C(C1CCC1)N1CCCCN2[C@H](CO)[C@H](c3ccc(-c4ccncc4)cc3)[C@@H]2C1 | 0.993 ± 0.016 | –
7 | C[C@H](CO)N1C[C@H](C)[C@@H](CN(C)C(=O)Nc2ccc(-c3cccs3)cc2)OCc2cnnn2CCCC1=O | 1.11 ± 0.076 | –
8 | CCN(C[C@@H]1N[C@@H](CO)[C@@H]1c1ccccc1)C(=O)c1ccncc1 | 0.999 ± 0.096 | –
9 | C/C=C/c1ccc([C@H]2[C@H]3CN(Cc4ccc(F)cc4)CC(=O)N3[C@H]2CO)cc1 | 1.1 ± 0.074 | –
10 | O=C(C[C@@H]1C[C@@H]2c3cc(NS(=O)(=O)c4ccc(F)cc4)ccc3O[C@@H]2[C@@H](CO)O1)N1CCc2ccccc2C1 | 0.963 ± 0.039 | –
11 | COc1ccc(NC(=O)N2C[C@@H](O)COC[C@@H]3O[C@H](CC(=O)N4CCCCC4)CC[C@H]32)cc1 | 1.03 ± 0.012 | –
12 | CCC(=O)N1[C@H](CO)[C@@H](c2ccccc2)[C@@H]1CN(CC)C(=O)c1cccc(F)c1 | 1.08 ± 0.089 | –
13 | COc1ccc(C#Cc2ccc([C@@H]3[C@H](CO)N4CCCCN(C)C[C@@H]34)cc2)cc1 | 1.04 ± 0.11 | –
14 | CCCC(=O)N1C[C@]2(CCN(CC2)S(=O)(=O)CC)c2c([C@H]1CO)n(C)c1cc(OC)ccc21 | 1.02 ± 0.072 | –
15 | COCC(=O)N1[C@H](CO)[C@H](c2ccccc2-c2ccccc2F)[C@@H]1C#N | 1.09 ± 0.058 | –
16 | O=S(=O)(c1ccc(F)cc1)N1CCCCN2[C@H](CO)[C@@H](c3ccc(-c4cncnc4)cc3)[C@H]2C1 | 1.035 ± 0.002 | –
17 | N#Cc1cccc(-c2ccc3c(c2)[C@@H]2[C@@H](CCN2C(=O)CN2CCOCC2)[C@H](CO)N3)c1 | 1.02 ± 0.02 | –
18 | O=C(Nc1ccc(F)cc1)N1[C@@H]2CNc3ccccc3[C@@H]2[C@@H]1CO | 1.04 ± 0.066 | –
19 | CCCN1[C@@H]2Cn3c(ccc(-c4ccccc4)c3=O)[C@H]1[C@@H](C(=O)NCC)[C@@H]2CO | 0.99 ± 0.039 | –
20 | CN1C(=O)c2cc(NC(=O)Nc3ccccc3F)ccc2OC[C@@H]2O[C@@H](CC(=O)NCCc3ccncc3)CC[C@@H]21 | 0.899 ± 0.052 | –
21 | CN(C)C(=O)c1ccc(-c2ccc3c(c2)[C@H]2[C@H](CCN2C(=O)C2CCCC2)[C@H](CO)N3C)cc1 | 1.001 ± 0.0075 | –
22 | CN1C[C@@H]2[C@H](c3ccccc31)[C@H](CO)N2S(=O)(=O)c1ccccc1 | 1.01 ± 0.029 | –
23 | C[C@H](CO)N1C[C@H](C)[C@@H](CN(C)C(=O)Nc2ccc(F)cc2)OCc2ccccc2-c2c(n(C)c3ccccc23)C1=O | – | 0.904 ± 0.059
24 | C/C=C/c1ccc([C@H]2[C@H]3CNC[C@@H]2N3Cc2cccc(C(F)(F)F)c2)cc1 | 1.05 ± 0.021 | –

Row | Structure (SMILES) | viability index [1] | viability index (library set: Broad Institute Blood Stage)
25 | C[C@@H]1CN([C@@H](C)CO)C(=O)Cc2cc(NC(=O)Nc3ccc(F)cc3)ccc2O[C@@H]1CN(C)S(C)(=O)=O | 1.115 ± 0.01 | –
26 | O=C(Nc1cc(F)ccc1F)N[C@@H]1CC[C@H](CC(=O)N2CCc3ccccc3C2)O[C@H]1CO | 1.03 ± 0.049 | –
27 | CC(=O)N1[C@H](CNC(=O)C2CC2)[C@H](c2ccc(-c3ccccc3)cc2)[C@@H]1CO | 1.05 ± 0.057 | –
28 | CN1C(=O)c2cc(NC(=O)c3cnccn3)ccc2OC[C@@H]2O[C@@H](CC(=O)N[C@H]3CCN(Cc4ccccc4)C3)CC[C@H]21 | 1.02 ± 0.054 | –
29 | CCc1nc(N2[C@H](CO)[C@@H](c3ccccc3-c3ccc(F)cc3)[C@@H]2C#N)sc1C | 1.02 ± 0.054 | –
30 | O=C1NCCOCn2nncc2CC[C@H]1Cc1cccc(Cl)c1 | 0.968 ± 0.045 | –
31 | CC(C)N(C[C@H]1N[C@H](CO)[C@H]1c1ccccc1)S(=O)(=O)c1ccccc1 | 1.01 ± 0.028 | –
32 | O=S(=O)(c1ccc(F)cc1)N1CCCCN2[C@H](CO)[C@H](c3ccc(-c4cncnc4)cc3)[C@H]2C1 | 1.01 ± 0.063 | –
33 | CN1CCN(C(=O)C[C@H]2CC[C@H]3[C@@H](COC[C@@H](O)CN3C(=O)c3ccccc3F)O2)CC1 | 1.07 ± 0.019 | –
34 | O=C(NC1CCCC1)[C@H]1[C@H](CO)[C@H]2Cn3c(ccc(C4=CCCCC4)c3=O)[C@@H]1N2CC1CC1 | 1.09 ± 0.049 | –
35 | Cc1noc(C)c1NC(=O)N[C@@H]1C=C[C@@H](CC(=O)Nc2ccc(-c3ccccc3)cc2)O[C@H]1CO | 1.022 ± 0.0097 | –
36 | O=C([C@@H]1[C@@H](CO)[C@@H]2Cn3c(ccc(C4=CCCC4)c3=O)[C@H]1N2C(=O)c1cccnc1)N1CCOCC1 | 1.08 ± 0.038 | –
37 | CCCNC(=O)N1[C@H](CO)[C@H](c2ccc(C#Cc3cccc(F)c3)cc2)[C@@H]1C#N | 1.09 ± 0.027 | –
38 | COc1ccc(S(=O)(=O)N(C)C[C@@H]2Oc3c(cccc3N(C)C)C(=O)N([C@@H](C)CO)C[C@H]2C)cc1 | 0.967 ± 0.058 | –
39 | O=C(Nc1ccccc1F)N1CCCCN2[C@@H](CO)[C@@H](c3ccc(/C=C/c4ccccc4)cc3)[C@@H]2C1 | 0.8892 ± 0.0057 | –
40 | CN(C)C(=O)c1cccc(-c2ccc([C@H]3[C@H](CO)N4CCCCN(CC5CCOCC5)C[C@@H]34)cc2)c1 | 0.971 ± 0.12 | –
41 | Cc1ccccc1-c1ccc([C@@H]2[C@H]3CNC[C@@H]2N3C(=O)Nc2ccc(F)cc2)cc1 | 0.9735 ± 0.0069 | –
42 | CCCC(=O)Nc1ccc2c(c1)OC[C@H](C)NC[C@H](C)[C@@H](OC)CN(C)C2=O | 1.09 ± 0.04 | –
43 | CCS(=O)(=O)Nc1ccc2c(c1)C(=O)N(C)C[C@H](OC)[C@H](C)CN(C(=O)c1ccc3c(c1)OCO3)[C@@H](C)CO2 | 1.06 ± 0.024 | –
44 | CO[C@@H]1CC[C@H]2CCN(C)C(=O)CCCN(C)C(=O)c3cc(C#N)ccc3OC[C@H]1O2 | 1.04 ± 0.072 | –
45 | O=C(C[C@H]1CC[C@@H]2[C@H](COC[C@H](O)CN2C(=O)Nc2cccc(F)c2)O1)NCCCN1CCOCC1 | 1.04 ± 0.015 | –
46 | O=C(C[C@@H]1CC[C@@H]2NC[C@@H](O)COC[C@H]2O1)NCCN1CCCCC1 | 0.995 ± 0.088 | –
47 | CN(C)C(=O)C[C@@H]1CC[C@H]2[C@@H](COC[C@@H](O)CN2S(=O)(=O)c2ccccc2Cl)O1 | 1.06 ± 0.063 | –
